To fix the notation:
B1: CPEB3 Ribozyme (parent)
chain: UAACAGGGGGCCACAGCAGAAGCGUUCACGUCGCAGCCCCUGUCAGAUUCUGGUGAAUCUGCGAAUUCUGCUGUAUAUCUC

The source gives no read counts; variants with many changes may rest on few reads.

Variants of B1 are the subject of the series. Nature of the series: self-cleavage, relative activity (ratio to wild type); higher = more cleavage; in vitro, sequencing. Put shortly: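 Barcoded CPEB3 ribozyme mutants, produced by rounds of error-prone PCR, self-cleaved while being transcribed with T7 RNA polymerase for 5 hours at 37°C and during a subsequent 15 min DNase I step before EDTA was added. Sequencing of template-switched cDNA on Illumina gave cleaved and total reads, and DNA sequencing assigned barcodes to variants. Each variant's relative activity is its cleaved/total read fraction divided by the unmutated ribozyme's fraction, averaged across three batches. A variant needed a minimum of 5 reads.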
For the variant G9U G63C U76C, the self-cleavage was 0.16.

For G9C U31A U80A, the self-cleavage was 0.26.

In the case of G9U C38U A64G U78C, the self-cleavage was determined as 0.12.

Consider G10A A15G U25G U31C, for which the self-cleavage is 0.27.

Take G9U U69C G73U U74A U78C: the self-cleavage is 0.06.

For G9C G24A U26C C38U U54C, the self-cleavage worked out at 0.04.

For the variant G9U A20G U26A G33U, the self-cleavage was 0.2.

Turning to G9A G53A A56G, the self-cleavage is 0.07.

Turning to G9A U43C U54A C59U, the self-cleavage worked out at 0.16.

With G10A A18G U48C C68U, the self-cleavage amounted to 0.16.

As to G9A C37U U66C U76C, the self-cleavage was determined as 0.04.

In the case of G10A A15G U49C U54A A75G, the self-cleavage came out at 0.05.

G9A C14A A28G C37U U41C U60A: the self-cleavage is 0.04.

Regarding G9A U43A A77C, the self-cleavage amounted to 0.38.

G9A U25C U51A C71U U72C: the self-cleavage is 0.22.

In the case of G9A U26A C34G A35U U41A U60C, the self-cleavage was 0.03.

On to G9A C40G U43C U66C U78C, for which the self-cleavage worked out at 0.08.

On to G9C C14U U43C U48C U49A U54G, for which the self-cleavage amounted to 0.04.

On to G10A A13U U26C U51C, for which the self-cleavage was 0.09.

G9U A18C U25C: the self-cleavage worked out at 0.24.

For G9A C40U A77C, the self-cleavage came out at 0.07.

In the case of G9U C11U U66C U74C U78C, the self-cleavage is 0.06.

For G9U A20C U26C U54C U67C, the self-cleavage was 0.1.

On to G9U A20G U25C, for which the self-cleavage amounted to 0.2.

For G9C U48A U76C, the self-cleavage was 0.09.

In the case of G9A U25C U43C U48C U69C U78G, the self-cleavage was found to be 0.04.

In the case of G9U A21G G30U A65G, the self-cleavage stood at 0.14.

For the variant G9A U26C A28G U60A, the self-cleavage is 0.17.

Consider G9U C38U U54G U78C, for which the self-cleavage amounted to 0.21.

On to G9A U41G A56G, for which the self-cleavage is 0.37.

As for G9U A15U G19U U25C U41C G53A A56C, the self-cleavage was 0.08.

G9C A56G U67C: the self-cleavage amounted to 0.12.

On to G9U A18U A20G U25C, for which the self-cleavage is 0.05.

As for G9A U49C G53C U80A, the self-cleavage was found to be 0.05.

On to G10A A20G C29G U54G A56G C79U, for which the self-cleavage turned out to be 0.04.

With G9U A35U U49G A65G, the self-cleavage amounted to 0.05.

Consider G9C A13G A15G A18U A56C G63U, for which the self-cleavage stood at 0.07.

As for G9A C12U C23U, the self-cleavage amounted to 0.18.

With G9U C12A A56G C62G A65G, the self-cleavage is 0.1.

In the case of G9U G22A U78C, the self-cleavage is 0.04.

G9A C14G A21U C23A A47U U67A: the self-cleavage stood at 0.03.

Turning to G9A U49C U58C, the self-cleavage is 0.08.

In the case of G9A U41C U43C, the self-cleavage was 0.19.

For the variant G9U G30A C40U A45G U74A, the self-cleavage was found to be 0.05.

For the variant G9A A65G U78C, the self-cleavage turned out to be 0.15.

For the variant G9A C34U G42A U51A U54A U58C A65G, the self-cleavage came to 0.03.

For G9C U25C A64G U66C, the self-cleavage was 0.21.

As for G10A A15U U51A U54C U58A U66C, the self-cleavage worked out at 0.13.

As to G9U C44U U78C, the self-cleavage came out at 0.07.

As for G9U C11U U49A U60C U66C, the self-cleavage amounted to 0.14.

Turning to G9U A35U A47G, the self-cleavage came out at 0.07.

With G9U U26C G33A U67C A77G, the self-cleavage amounted to 0.05.

Regarding G9A U41G A45G G61A U74C, the self-cleavage turned out to be 0.06.

As to G10A A15G A18U A20G C71U, the self-cleavage came out at 0.04.

G10A A20G U26C A57G: the self-cleavage came out at 0.07.

Consider G9A G10A A28G A35G A45U U54A U69C, for which the self-cleavage was 0.05.

G9U U26A U31C U43C U54G A56U A77C: the self-cleavage was determined as 0.04.

On to G10A A13G A35G C38U A64G, for which the self-cleavage turned out to be 0.08.

G9U A28U U31A A45G U48C U51A U78C: the self-cleavage was found to be 0.03.

For the variant G9C A21G G46U G53C U67C, the self-cleavage is 0.12.

As for G9C U25A G30A A35U U67A, the self-cleavage worked out at 0.06.

Take G9U U43C A65U: the self-cleavage was found to be 0.37.

In the case of G9U A18U A28C U48C U54C, the self-cleavage turned out to be 0.11.

Consider G9A U41C U51A U72C, for which the self-cleavage worked out at 0.84.

Turning to G9U A15U U60A U80C, the self-cleavage worked out at 0.07.

In the case of G9A U43G A75G, the self-cleavage stood at 0.04.

In the case of G9U U51G A57U U72C U74C, the self-cleavage was found to be 0.06.

With G9A U31C C59U, the self-cleavage is 0.07.

Turning to G9A U25C A28C A35U U67C U74A U80C, the self-cleavage was 0.04.

With G9U U67C U72A, the self-cleavage stood at 0.11.

Take G9U U25A U26C: the self-cleavage is 0.32.

Turning to G9U A15U U26C A65G U80C, the self-cleavage worked out at 0.04.

As to G9U A65G U74C U76C, the self-cleavage was 0.07.

Consider G9U G30C U69C G70A, for which the self-cleavage amounted to 0.14.

Turning to G9U U43A U60A U69A, the self-cleavage stood at 0.05.

Regarding G10A A15G U25C A45U A65G A75G C81U, the self-cleavage is 0.03.

Regarding G10A A13G A21G U26C, the self-cleavage was found to be 0.06.

For the variant G9A U43G A45U U72C, the self-cleavage was determined as 0.07.

As to G9U A13U A56G A57G U66C, the self-cleavage was found to be 0.08.

As to G9U A15G U26C U72C A77G U78C, the self-cleavage amounted to 0.15.

Regarding G9A C14G C23U A47U, the self-cleavage amounted to 0.28.

On to G9U A15G A56G U69C U80C, for which the self-cleavage was found to be 0.12.

Take G9U A21C U25C G30A U43C: the self-cleavage worked out at 0.11.

Consider G9U U31C U51A U72A, for which the self-cleavage turned out to be 0.08.

The record behind these values is the RNAGym collection of RNA variant scans (doi:10.1093/nar/gkz1192).
